For 22 molecules, binding signal results are on record in publication PMC12136788.

Some of the results follow.

First the molecules themselves.
T1: UNK ZnF1-3 (human, UniProt Q9C0B0 31-174)
T1 sequence: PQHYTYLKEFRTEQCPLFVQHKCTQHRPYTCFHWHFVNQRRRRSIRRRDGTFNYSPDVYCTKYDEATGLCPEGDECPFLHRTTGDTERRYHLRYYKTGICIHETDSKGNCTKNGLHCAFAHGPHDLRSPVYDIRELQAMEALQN

B1: 17796332_17796452_737_CDS_ENSG00000078674_ENST00000519253|human|control|control (ssRNA)
RNA: GGGAGUUCUACAGUCCGACGAUCGUCAUUACUUAAAGCAGAAGCAAACAACUCUUUACACUGUGCUGAUCCAAUCGUUUCUCUGUUUGGGGGGUUUGUAGAUGCAUCUUUGCUCUUGUUAGUAUUAAUCUGCAUAGGCAAAAACAACAGAGGAUUGAGCAUCA
B2: chr4:95690885:95690886:+_ENSMUSG00000028572_ENSMUST00000156910|mus_mus|mus_mus_mus_hu_False|8_18 (ssRNA)
RNA: GGGAGUUCUACAGUCCGACGAUCUUUAGAAAAUGUUAAAUACCAUGCUAAAAUAUUUUCAAAGGCUUAUUUUAUUUUACCAGAAGUCACAGGCAAGCAGACACUACAAGAAUAUAUAAAUACAAACCAACAGUGUAUAACUGUCAACAGAGGAUUGAGCAUCA
B3: chr9:42776281:42776282:-_ENSMUSG00000059495_ENSMUST00000165665|mus_hu|FALSE|FALSE (ssRNA)
RNA: GGGAGUUCUACAGUCCGACGAUCUCUUUACCCACUCCCAUCCCACCCUUUCCUUAGCAACCCCCACCCCUGCCACUAUCCGAAGCAUUUCCAUUUGUUUUUACUUCCUGCUCAAUCUGCAGGGACAGUUUUACACAAGUGCCACAACAGAGGAUUGAGCAUCA
B4: 54283497_54285306_744_CDS_ENSG00000091164_ENST00000590954|human|control|control (ssRNA)
RNA: GGGAGUUCUACAGUCCGACGAUCCAUGGAAUAAAGCUUAACAGGUUGAUUGAAUGCCACAGUAAUAAGCAGCUGUUCAUCACAGUCAGAUUCCAAGAAGGUUGUGUCUUUUCGUAAACAGUUGUCAAAUCCAUGCUCAUCACUCAACAGAGGAUUGAGCAUCA
B5: chr2:121837063:121837064:+_ENSMUSG00000033411_ENSMUST00000110578|mus_hu|motif|central (ssRNA)
RNA: GGGAGUUCUACAGUCCGACGAUCAUUAGUCAUUCAUAUAUUCUUAUCUACCCAGUCUCUUGAUUUUUGAAAAGAUUUCACCGGCAGUAGAAUAUUACAGAAACAAAAUAUAAAUGCAUGUCUUUCUAAAUGAAACUUACAUAGCAACAGAGGAUUGAGCAUCA
B6: chr6:56729896:56729897:-_ENSMUSG00000059486_ENSMUST00000114323|mus_hu|FALSE|FALSE (ssRNA)
RNA: GGGAGUUCUACAGUCCGACGAUCCUUAUGCAAAUCAGCUGGUGGGCUACAUAACUUGUAAACUUUUUCUGCUUGGGGGCUGUAACAGACAGAAGAGUAAAGACUACAAGGAUUUUCUGAAGAUGCUUCAAUGAAAAUCAUCAUCAACAGAGGAUUGAGCAUCA
B7: chr17:60770872:60770873:+_ENSG00000011028_ENST00000303375|hu_hu|hu_hu_hu_mus_True|8_108 (ssRNA)
RNA: GGGAGUUCUACAGUCCGACGAUCUCUCUUUUCUUUUAAAAAAAAAGACAAACAAUAAUAGCACAUUUCGAGAAUCAAGAACUACAAUAGAGGGUCCGCUUUGAGUUUUUGUUCACAUCGUCCUGCAACGCUGUCGCGGGACUGCAACAGAGGAUUGAGCAUCA
B8: 23048695_23050092_2042_3pUTR_ENSMUSG00000026775_ENSMUST00000028117|mouse|control|control (ssRNA)
RNA: GGGAGUUCUACAGUCCGACGAUCGCAAGCAGCUGGGCUCGAGUUUCAUUCCAUCUGUCAUUCUCAGGCAACAGUGAUACAUGCCCAAGUGUUGGCCCUCGAGGCAUGAUUGUAGCUUUAUUAAUUGGCAUUGCAUCCUUUGUGCAACAGAGGAUUGAGCAUCA
B9: chr12:48362563:48362564:+_ENSG00000134291_ENST00000256686|hu_hu|hu_hu_hu_mus_False|1_38 (ssRNA)
RNA: GGGAGUUCUACAGUCCGACGAUCUCCGUCAAGCCCUUCGAUAGACCCUUGCGGGGGAAACUGUAAUCACUUUGUAUGGGGAAGGAAAAGAAACGCCAACACACUUUCAAAAAGCGGGGGUGGGGUGAGGCGGGAGGUUGGGAACAACAGAGGAUUGAGCAUCA
B10: 427339_427459_3132_3pUTR_ENSG00000073614_ENST00000399788|human|control|control (ssRNA)
RNA: GGGAGUUCUACAGUCCGACGAUCAGCCAUUGCUUUCUCCACAGCAUGGUGGGGUGCCAACCCUACCCCAGAGUCUAUCAGCUUCUUCAUGACAUCCAAAGUGACUUGUUGCGGAUCUGAUAAGGUCAGUCUUACUUCGUCCAACAACAGAGGAUUGAGCAUCA
B11: chr12:16048344:16048345:+_ENSG00000023734_ENST00000419869|hu_hu|hu_hu_hu_mus_True|38_58 (ssRNA)
RNA: GGGAGUUCUACAGUCCGACGAUCAGAUCGUCCAUAAGUAAUAACCAAAAUCUCUCCUUCAGGAAUAUACUCCAUGCUACUAACAGACAUAUUAAAAUUUAGAGAUUUCACUUCUGUCAUUGUGGCAUGAUCCCAGAGCCGAACCAACAGAGGAUUGAGCAUCA
B12: 150239348_150240437_424_3pUTR_ENSMUSG00000028967_ENSMUST00000030811|mouse|control|control (ssRNA)
RNA: GGGAGUUCUACAGUCCGACGAUCCGAGCAGCACAUCCAACAGUUGUUAGGUGCUCCUGAGCAGGGGAGUUCAGAUUGUAGGCCAUGGUUAUUGGAUCAAUAUUUAAAAAGUUAUUUUCAAACUCACUGUGACUGCCCCAGCAGCAACAGAGGAUUGAGCAUCA
B13: 88408222_88408429_915_CDS_ENSMUSG00000005371_ENSMUST00000130379|mouse|control|control (ssRNA)
RNA: GGGAGUUCUACAGUCCGACGAUCGGACACGCCCCCUGGCCACUGACACACACUGCAGAACCAACUGUGCAUGUGCUGCGGAUUAUACAGUGGUCAAUAAUAGGGCUGCAGUUGACUGUGAUCUCUAAGCAGUGGUGUGCGUUGCAACAGAGGAUUGAGCAUCA
B14: chr9:100896081:100896082:-_ENSMUSG00000032527_ENSMUST00000035116|mus_mus|motif|central (ssRNA)
RNA: GGGAGUUCUACAGUCCGACGAUCGAAAUUGAAGAAUUCACGCAGGUUACACAGAGCAUCAACAUCAUUGUCGAAAGCUCGGUGGGCCACACCUGACACAGUGGUGUGGGUCUUGGCACCACCCAGCUGCUCUUGAGUGACAUCCAACAGAGGAUUGAGCAUCA
B15: chr3:119242560:119242561:+_ENSG00000113845_ENST00000264244|hu_hu|FALSE|FALSE (ssRNA)
RNA: GGGAGUUCUACAGUCCGACGAUCUCAGCUCUCCAGUGAGUUUCAAGUUCAGAGCACUUUCAGUCCUUGUCUUGUUUAUCUAUUACUGAAGGGUUUCUAGGAAGGUUUAGCAGUGCUUCAAUUUUCUUAGCAUCAUUCUCAGGUCAACAGAGGAUUGAGCAUCA
B16: chr3:105481821:105481822:-_ENSMUSG00000027905_ENSMUST00000090680|mus_hu|FALSE|FALSE (ssRNA)
RNA: GGGAGUUCUACAGUCCGACGAUCCCCCUCUUUAAGUCUUGUCUUCAUCUGGAUUCCAGGUGAUUCUUGAUAUUUCUCUGGAUUGGGGGUGUCACUUCCAUUUGGUGGUUGUUCCAAAGAAAUACGAUCAUCCACAGGCGUAGACAACAGAGGAUUGAGCAUCA
B17: chr7:117451621:117451622:-_ENSMUSG00000038371_ENSMUST00000164759|mus_mus|FALSE|FALSE (ssRNA)
RNA: GGGAGUUCUACAGUCCGACGAUCGAACAUACGGCAGGCGGUGCCGUCAUGGAAGUUAAAAGACUCCAGUUACAAAAGCAGUAGUGGGCACAGCUUCAAAGAGCCGAGAGGACAGUGGGCUCCAGAGUCUACAAAGUACAAAAACAACAGAGGAUUGAGCAUCA
B18: 44200788_44200988_1324_CDS_ENSG00000138095_ENST00000260665|human|control|control (ssRNA)
RNA: GGGAGUUCUACAGUCCGACGAUCGAAAUAGUGAGGUCUGAUAGGAAAACCUUCCUCCUUCACAGCCUUCAUUAAGGCUUUUGCCAAAUCAGUUUUAUUGGCGAGUAAAGCACAAUGGAGGGUGAACUGCAGAGGAAAGGAGUGCAACAGAGGAUUGAGCAUCA
B19: chr9:91949571:91949572:+_ENSG00000187742_ENST00000375807|hu_mus|FALSE|FALSE (ssRNA)
RNA: GGGAGUUCUACAGUCCGACGAUCAUAAACACGCUUUUCUCUGUUGUAGGAAGGAUUUGAAGAUAAAGCCUCAGAUGUCACACUAACAUUUUUAGCAUCAGCUGAUGAAGUAGUCUUCUUUAGGUUUAUCAUGGAAGUCACAUUCAACAGAGGAUUGAGCAUCA
B20: chr16:94664741:94664742:+_ENSMUSG00000040785_ENSMUST00000117648|mus_hu|mus_mus_mus_hu_False|48_108 (ssRNA)
RNA: GGGAGUUCUACAGUCCGACGAUCUGGCAUGGAUCUUGGUAGCUGAUAUUCAGGAGAAAGGCUGGCCAAGGGUGUAUAUAUGCUGGUGAACUGCGACAAACCUGGUAACACGUUUAUGUAUGCUGGCGGUGUCUGGGUGAUAUCCAACAGAGGAUUGAGCAUCA
B21: chr11:69466387:69466388:+_ENSG00000110092_ENST00000227507|hu_mus|FALSE|FALSE (ssRNA)
RNA: GGGAGUUCUACAGUCCGACGAUCUUAAAAACAUAUAAAAGAAUCAAAACUCCUUCUCAAGACUUCCCCUGUGUUAAUCCUACUCUUAGAACAGACAAGCACAUUAAUAGAAAACUAGUUGAUUACUGGGGUACAGAAUUCUAUCAACAGAGGAUUGAGCAUCA
B22: chr8:59359966:59359967:+_ENSG00000215114_ENST00000399598|hu_hu|motif|central (ssRNA)
RNA: GGGAGUUCUACAGUCCGACGAUCCGCAAAUUCAGGACGAGACUGUACAAUAAAGUUCCGGACAUCCAGGAUCCUGUGUGUACGGUUGAAUCUUUGUAUCAAACGACUCCCAUCUGCUAACCUGAUUUGAAUUUUUGUUGUUGGCAACAGAGGAUUGAGCAUCA

This test has as its target T1, UNK ZnF1-3. In words: nsRBNS (natural sequence RNA bind-n-seq); RBNS binding buffer (assumed for nsRBNS): 25 mM Tris pH 7.5, 150 mM KCl, 3 mM MgCl2, 0.01% Triton X-100, 500 ug/ml BSA, 20 U/ml SUPERase-In, 4 C; UNK is unkempt and MSI1 is Musashi-1; names of the RNAs are library labels; protein concentration not given here; high values mean tight binding.
The molecule B1 registered a binding signal of 1.04 enrichment R.

B2 had a binding signal of 1.83 enrichment R.

For the molecule B3, the binding signal is 0.75 enrichment R.

In turn, B4 registered a binding signal of 1.08 enrichment R.

B5 returned a binding signal of 1.13 enrichment R.

Molecule B6 returned a binding signal of 1.15 enrichment R.

In turn, B7 came in with a binding signal of 0.832 enrichment R.

In the case of B8, the binding signal was determined as 0.701 enrichment R.

B9 came in with a binding signal of 2.28 enrichment R.

B10 yielded a binding signal of 0.966 enrichment R.

In turn, B11 had a binding signal of 0.993 enrichment R.

Take B12: the binding signal is 1.62 enrichment R.

Consider B13, for which the binding signal came to 0.402 enrichment R.

On to B14, for which the binding signal was 0.719 enrichment R.

Molecule B15 showed a binding signal of 0.625 enrichment R.

B16 came in with a binding signal of 0.529 enrichment R.

B17: the binding signal was found to be 1.44 enrichment R.

B18 showed a binding signal of 0.712 enrichment R.

B19 showed a binding signal of 0.972 enrichment R.

Molecule B20 displayed a binding signal of 1.08 enrichment R.

Molecule B21 came in with a binding signal of 1.99 enrichment R.

In the case of B22, the binding signal was determined as 0.961 enrichment R.
